ChEMBL document CHEMBL4888484, “Replenishing the malaria drug discovery pipeline: Screening and hit evaluation of the MMV Hit Generation Library 1 (HGL1) against asexual blood stage Plasmodium falciparum ,using a nano luciferase reporter read-out” (2022)
The campaign covered roughly 150,000 compounds. About 540 (0.36%) showed an effect of 50% or more. The list shows a part of the results.

The compounds below were run on Plasmodium falciparum (assay: Primary screen in NF54 nanoGlo assay, in single point, at 2uM, 72h; a lower Z score goes with more inhibition). Settings: timepoint 72 hour.
Format: functional, Erythrocyte
For `CCOC(=O)[C@H]1CCCN(C(=O)CN2CCN(c3cccc(Cl)c3)C2=O)C1`, the “% Inhibition” value was -3% and the Z score was 0.36.
`CC(C)Cn1ccnc1CNc1nccnc1C#N` was tested, and the “% Inhibition” value was 5% and the Z score was -0.83.
With `CC(=O)c1sc(CC(=O)NCc2ccco2)nc1C` the “% Inhibition” value was -10% and the Z score was 1.12.
With `Cc1oc(-c2cccc(Cl)c2)nc1CNC(=O)NC1CCCCC1` the “% Inhibition” value was 5% and the Z score was -0.61.
In the case of `Cc1ccc2sc(CN3CCN(S(=O)(=O)c4cccnc4)CC3)nc2c1`, the “% Inhibition” value is reported as -5% and the Z score is reported as 0.55.
For `COc1ccccc1NC(=O)c1cc2c(ccc3ccccc32)o1`, the “% Inhibition” value was -1% and the Z score was 0.11.
With `Cc1cc(C)c2c(C)c(C(=O)N3CCOC34CCN(C)CC4)oc2c1` the “% Inhibition” value was 4% and the Z score was -0.53.
In the case of `Cn1ccc2cc([C@@H](O)CNC(=O)N3CCN(S(C)(=O)=O)C3=O)ccc21`, the “% Inhibition” value is reported as -7% and the Z score is reported as 0.93.
In the case of `O=C(N[C@@H]1COC2(CCCC2)C1)c1ccc(C(F)(F)F)cc1`, the “% Inhibition” value is reported as -11% and the Z score is reported as 2.11.
For `CCCN(CCC)S(=O)(=O)N[C@H]1CCC[C@H]1Cn1ccnn1`, the “% Inhibition” value was -2% and the Z score was 0.41.
`O=C1CC(C(=O)N2CCO[C@H]3CCC[C@H]32)CN1` (stereo partly drawn) was tested, and the “% Inhibition” value was -13% and the Z score was 1.81.
`CC(C)(C#CCN1CCCCC1)OCCOC(c1ccccc1)c1ccccc1` was tested, and the “% Inhibition” value was -15% and the Z score was 1.35.
With `FC(F)(F)C1CCN(Cc2cccs2)CC1` the “% Inhibition” value was -6% and the Z score was 1.09.
With `CC(C)c1nc(CNc2nnc([C@@H]3Cc4ccccc4O3)o2)cs1` the “% Inhibition” value was -11% and the Z score was 1.19.
`O=C(Nc1cc[nH]n1)Nc1ccncc1F` was tested, and the “% Inhibition” value was -7% and the Z score was 1.08.
`COc1cc(C)cc(OC)c1-c1ccc(-n2cnnc2)nc1` was tested, and the “% Inhibition” value was 3% and the Z score was -0.5.
For `CCn1ccc(NC(=O)N[C@@H]2CCC[C@@H]2Oc2cnn(C)c2)n1`, the “% Inhibition” value was -5% and the Z score was 0.57.
`CCc1noc(CC)c1CNC(=O)N1CCC[C@H]1C(F)F` was tested, and the “% Inhibition” value was 5% and the Z score was -0.74.
For `O=C(CCc1ccsc1)NCCc1ccccc1`, the “% Inhibition” value was -4% and the Z score was 0.77.
`CC(C)(C)c1ccc2c(c1)N(S(=O)(=O)c1ccccc1)C[C@@H](C(=O)NCc1ccco1)O2` was tested, and the “% Inhibition” value was -16% and the Z score was 2.88.
For `CCc1nn2c(c1-c1ccc(OC)c(S(=O)(=O)Nc3ccc(C)cc3C)c1)NC(=O)CCC2=O`, the “% Inhibition” value was 5% and the Z score was -0.62.
With `c1sc(CC2CC2)nc1C1CCOCC1` the “% Inhibition” value was -2% and the Z score was 0.25.
In the case of `COc1cc(NC(=O)NC2CCCC(OC(=O)Nc3ccccc3)C2)cc(OC)c1` (stereo not drawn), the “% Inhibition” value is reported as -6% and the Z score is reported as 1.1.
For `Nc1c(-c2ccccn2)nsc1C(=O)NCc1cc(F)cc(F)c1`, the “% Inhibition” value was -10% and the Z score was 1.63.
